# Results reported in the supplement of paper PMC11417369.
# ± gives the standard deviation of the averaged measurements. The list shows a part of the results.
# Tested on: PfAP2-I AP2 domain 3 (GST-tagged)
# Assay: gcPBM binding intensity (ln(normalized median fluorescence intensity)); higher = stronger DNA binding
# In short: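 The highest Masliner-normalised natural-log median intensity across replicate spots of either probe orientation is reported as binding intensity. GST-tagged P. falciparum DNA-binding domains expressed in E. coli were applied for 1 h to an Agilent 4 × 180k array of primer-extended double-stranded 36-bp intergenic genomic probes plus negative controls, and bound protein was detected with Alexa488 anti-GST antibody and scanned at 488 nm.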
row,Sequence,gcPBM binding intensity (ln)
1,AATATTTAAAACATATGTACTGAAAAACAATTGGAC [XGTACX_site6360],8.12 ± 0.57
2,CACAAAGGTCTGAAATTTTAGGGGTGCCTGGGACTA [CACACA_negctrl_site681],7.88 ± 0.36
3,AACAAGTTGCATGGTGCACACATGTATATATATCTA [CACACA_site2548],10.6 ± 0.21
4,TACAATTTTACTCATAAACACACATATATATGTTAT [CACACA_site9031],7.82 ± 0.46
5,AAAATGTATGTAGTCTGTACAAATACTCTATAAATA [XGTACX_site6475],7.67 ± 0.47
6,TATTTTTTATGATTAACACACACACTAATAAAAAAA [CACACA_site9370],8.21 ± 0.42
7,TATATATATATATATAGTACGCACACATAGTTGCAA [XGTACX_site5875],9.27 ± 0.52
8,ATTCTTACTAATATCGCACACACATATGTAGACGGG [CACACA_site88],8.98 ± 0.39
9,ATTTTTTTATTTTTGTGTACTTATAAGAATATTAAT [XGTACX_site4850],8.15 ± 0.38
10,AATGAATATATTTATTGTACATATATGAATATTGCA [XGTACX_site8689],7.89 ± 0.15
11,AAAAAAAAAAAAAAAAGTACAAAAAGGAGAAAGATA [XGTACX_site7862],8.56 ± 0.38
12,TATGTTCCTTTTTGTTGTACTGAAAAATTATGTTCA [XGTACX_site3981],8.03 ± 0.23
13,ATAATATAAATTAATTTACACACTAATAAATATATA [CACACA_site9259],7.8 ± 0.45
14,ATTTTAAATTTATCTGTGCACAGTATTATATAAGCA [GTGCAC_site9806],9.95 ± 0.2
15,TATATATATATATGTGCACACCAATTGTATGTAATA [CACACA_site3888],10
16,TCATAAAAGATTAAGTGTACATGTGCTACTCTTATA [XGTACX_site6255],7.54 ± 0.47
17,AATATAAAATCAAGAAATTAAAAAAAAACAGAAAAC [CACACA_negctrl_site1004],8.07 ± 0.69
18,ACAAGATAATAGAGAAGTACTAATAAACATACACAA [XGTACX_site6617],7.88 ± 0.64
19,AAACCAAAAATAACACGTACAAAAATAAAAAGTATA [XGTACX_site4261],7.97 ± 0.34
20,AAAACATATTTTAAAAGTACTTGAAAAAAAATTTTC [XGTACX_site3940],7.57 ± 0.3
21,ATTATGCACGGACACACACACACACCCCTAAAAAAT [CACACA_site5426],10.4 ± 0.49
22,TGTTAACCACAAAAATAAAATAAAATAAAAATAATA [XGTACX_negctrl_site535],7.38 ± 0.8

row,Sequence,gcPBM binding intensity (ln)
1,TTTCCCATAGGAAAAACACACATATATTATAGATAA [CACACA_site7019],7.41 ± 0.74
2,TATGCTATTATATATGTACACACCAATTTATTTATA [CACACA_site3918],8.12 ± 0.42
3,TGATAAATATTATGTTGTACTTTCTGCCCTTCACAT [XGTACX_site5168],8.16 ± 0.5
4,GAAAAAAAAAGTTAAGCACACACATGAATAAATAAT [CACACA_site8179],8.43 ± 0.29
5,TTTTGATGCTTTAAATGTACAAGGGTTCTTATGAAA [XGTACX_site831],7.88 ± 0.38
6,GAGAGAGAAATATGCACACATAAGGGAAATAAATAA [CACACA_site1153],8.94 ± 0.071
7,AAAAAAAAAAAATAGAAAAAAAAATAAAATAAAAAA [CACACA_negctrl_site562],7.5 ± 0.38
8,TGTATATAATTTATATGTACATATATTTTATTTTGT [XGTACX_site1905],7.71 ± 0.37
9,AATATATAAATTGACACACACATATATACCTATATA [CACACA_site4803],7.88 ± 0.54
10,CACAATGGTTTATATACACACTGTTGCAAATTCTTC [CACACA_site5659],7.76 ± 0.71
11,AATATAAACACAAACACACACATATAGATTTATATA [CACACA_site6263],7.78 ± 0.35
12,TTATACCTATATTTAACACACATTTGATAAAGTGCC [CACACA_site6732],7.76 ± 0.61
13,TTGTAGGTAAATATGTGTACGCATTATTATTCTTAA [XGTACX_site216],7.99 ± 0.46
14,AAAAAATTTGTTTATTGTACAGAAAGAATTATTATA [XGTACX_site6549],7.64 ± 0.3
15,GAGAGAGAAATAAAAAGTACATACATATATATACAT [XGTACX_site2267],7.79 ± 0.26
16,TGGAGATTTTTAAAGACACACAGGTAAGAATAATAA [CACACA_site1582],7.92 ± 0.63
17,AAAAAAAACAGACACATACACACAAAAATGTTATAA [CACACA_site82],7.55 ± 0.47
18,ACCATTTTTATGTATAAACACACGTACCCGCACTAA [CACACA_site1604],8.53 ± 0.39
19,TACTAAGAAGTATTTACACACCAACAAGGCGAAAAA [CACACA_site2944],7.91 ± 0.85
20,ATATGTATAAAAATCCGTACATAAGTGTGCGTATAT [XGTACX_site4376],8.72 ± 0.26
21,ATAAATAATATGTAAACACACAAAAAATAAAAATGA [CACACA_site1178],7.83 ± 0.61
22,ATGTTTGAGCCTAAGGTGCATATAAAAATATATGTG [GTGCAC_site9690],11 ± 0.66
